The supplement of paper PMC8728848
Some of the results follow.

Tests used:
Experiment in all cases: glycan array binding signal (z-score within array); higher = stronger binding
Settings in all cases: glycan notation: IUPAC condensed, linker removed
[1] = molecular target: Gal(b1-4)GlcNAc(b1-3)Gal(b1-4)GlcNAc(b1-2)Man(a1-3)[Gal(b1-4)GlcNAc(b1-3)Gal(b1-4)GlcNAc(b1-2)Man(a1-6)]Man(b1-4)GlcNAc(b1-4)[Fuc(a1-6)]GlcNAc
Outline: (§1)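 The binding signal is a Z-score computed within each array and averaged over linkers. Arrays of the same protein sequence at different concentrations or buffers were also averaged together. Data originate from 3228 arrays in the Consortium for Functional Glycomics database, kept only where the protein sequence was available.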

[2] = molecular target: Gal(b1-4)GlcNAc(b1-3)Gal(b1-4)GlcNAc(b1-2)[Gal(b1-4)GlcNAc(b1-3)Gal(b1-4)GlcNAc(b1-6)]Man(a1-6)[Gal(b1-4)GlcNAc(b1-3)Gal(b1-4)GlcNAc(b1-2)Man(a1-3)]Man(b1-4)GlcNAc(b1-4)GlcNAc
Outline: as §1

[3] = molecular target: Gal(b1-4)GlcNAc(b1-3)Gal(b1-4)GlcNAc(b1-2)[Gal(b1-4)GlcNAc(b1-3)Gal(b1-4)GlcNAc(b1-6)]Man(a1-6)[Gal(b1-4)GlcNAc(b1-3)Gal(b1-4)GlcNAc(b1-2)Man(a1-3)]Man(b1-4)GlcNAc(b1-4)[Fuc(a1-6)]GlcNAc
Outline: as §1

[4] = molecular target: Gal(b1-4)GlcNAc(b1-3)Gal(b1-4)GlcNAc(b1-3)Gal(b1-4)GlcNAc
Outline: as §1

[5] = molecular target: Gal(b1-4)GlcNAc(b1-3)Gal(b1-4)GlcNAc(b1-3)Gal(b1-4)GlcNAc(b1-2)Man(a1-3)[Gal(b1-4)GlcNAc(b1-3)Gal(b1-4)GlcNAc(b1-3)Gal(b1-4)GlcNAc(b1-2)Man(a1-6)]Man(b1-4)GlcNAc(b1-4)GlcNAc
Outline: as §1

[6] = molecular target: Gal(b1-4)GlcNAc(b1-3)Gal(b1-4)GlcNAc(b1-3)Gal(b1-4)GlcNAc(b1-2)Man(a1-3)[Gal(b1-4)GlcNAc(b1-3)Gal(b1-4)GlcNAc(b1-3)Gal(b1-4)GlcNAc(b1-2)Man(a1-6)]Man(b1-4)GlcNAc(b1-4)[Fuc(a1-6)]GlcNAc
Outline: as §1

[7] = molecular target: Gal(b1-4)GlcNAc(b1-3)Gal(b1-4)GlcNAc(b1-3)Gal(b1-4)GlcNAc(b1-2)[Gal(b1-4)GlcNAc(b1-3)Gal(b1-4)GlcNAc(b1-3)Gal(b1-4)GlcNAc(b1-6)]Man(a1-6)[Gal(b1-4)GlcNAc(b1-3)Gal(b1-4)GlcNAc(b1-3)Gal(b1-4)GlcNAc(b1-2)Man(a1-3)]Man(b1-4)GlcNAc(b1-4)[Fuc(a1-6)]GlcNAc
Outline: as §1

[8] = molecular target: Gal(b1-4)GlcNAc(b1-3)Gal(b1-4)GlcNAc(b1-3)Gal(b1-4)GlcNAc(b1-3)Gal(b1-4)GlcNAc(b1-2)Man(a1-3)[Gal(b1-4)GlcNAc(b1-3)Gal(b1-4)GlcNAc(b1-3)Gal(b1-4)GlcNAc(b1-3)Gal(b1-4)GlcNAc(b1-2)Man(a1-6)]Man(b1-4)GlcNAc(b1-4)GlcNAc
Outline: as §1

[9] = molecular target: Gal(b1-4)GlcNAc(b1-3)Gal(b1-4)GlcNAc(b1-3)Gal(b1-4)GlcNAc(b1-3)Gal(b1-4)GlcNAc(b1-2)Man(a1-3)[Gal(b1-4)GlcNAc(b1-3)Gal(b1-4)GlcNAc(b1-3)Gal(b1-4)GlcNAc(b1-3)Gal(b1-4)GlcNAc(b1-2)Man(a1-6)]Man(b1-4)GlcNAc(b1-4)[Fuc(a1-6)]GlcNAc
Outline: as §1

[10] = molecular target: Gal(b1-4)GlcNAc(b1-3)Gal(b1-4)GlcNAc(b1-3)Gal(b1-4)GlcNAc(b1-3)Gal(b1-4)GlcNAc(b1-2)[Gal(b1-4)GlcNAc(b1-3)Gal(b1-4)GlcNAc(b1-3)Gal(b1-4)GlcNAc(b1-3)Gal(b1-4)GlcNAc(b1-6)]Man(a1-6)[Gal(b1-4)GlcNAc(b1-3)Gal(b1-4)GlcNAc(b1-3)Gal(b1-4)GlcNAc(b1-3)Gal(b1-4)GlcNAc(b1-2)Man(a1-3)]Man(b1-4)GlcNAc(b1-4)[Fuc(a1-6)]GlcNAc
Outline: as §1

[11] = molecular target: Gal(b1-4)GlcNAc(b1-3)Gal(b1-4)GlcNAc(b1-3)Gal(b1-4)GlcNAc(b1-3)Gal(b1-4)GlcNAc(b1-3)Gal(b1-4)GlcNAc(b1-2)Man(a1-3)[Gal(b1-4)GlcNAc(b1-3)Gal(b1-4)GlcNAc(b1-3)Gal(b1-4)GlcNAc(b1-3)Gal(b1-4)GlcNAc(b1-3)Gal(b1-4)GlcNAc(b1-2)Man(a1-6)]Man(b1-4)GlcNAc(b1-4)GlcNAc
Outline: as §1

[12] = molecular target: Gal(b1-4)GlcNAc(b1-3)Gal(b1-4)GlcNAc(b1-3)Gal(b1-4)GlcNAc(b1-3)Gal(b1-4)GlcNAc(b1-3)Gal(b1-4)GlcNAc(b1-2)Man(a1-3)[Gal(b1-4)GlcNAc(b1-3)Gal(b1-4)GlcNAc(b1-3)Gal(b1-4)GlcNAc(b1-3)Gal(b1-4)GlcNAc(b1-3)Gal(b1-4)GlcNAc(b1-2)Man(a1-6)]Man(b1-4)GlcNAc(b1-4)[Fuc(a1-6)]GlcNAc
Outline: as §1

[13] = molecular target: Gal(b1-4)GlcNAc(b1-3)Gal(b1-4)GlcNAc(b1-3)Gal(b1-4)GlcNAc(b1-3)Gal(b1-4)GlcNAc(b1-3)Gal(b1-4)GlcNAc(b1-2)[Gal(b1-4)GlcNAc(b1-3)Gal(b1-4)GlcNAc(b1-3)Gal(b1-4)GlcNAc(b1-3)Gal(b1-4)GlcNAc(b1-3)Gal(b1-4)GlcNAc(b1-6)]Man(a1-6)[Gal(b1-4)GlcNAc(b1-3)Gal(b1-4)GlcNAc(b1-3)Gal(b1-4)GlcNAc(b1-3)Gal(b1-4)GlcNAc(b1-3)Gal(b1-4)GlcNAc(b1-2)Man(a1-3)]Man(b1-4)GlcNAc(b1-4)[Fuc(a1-6)]GlcNAc
Outline: as §1

[14] = molecular target: Gal(b1-4)GlcNAc(b1-3)Gal(b1-4)GlcNAc(b1-3)Gal(b1-4)GlcNAc(b1-3)Gal(b1-4)GlcNAc(b1-3)Gal(b1-4)GlcNAc(b1-3)Gal(b1-4)GlcNAc(b1-2)Man(a1-3)[Gal(b1-4)GlcNAc(b1-3)Gal(b1-4)GlcNAc(b1-3)Gal(b1-4)GlcNAc(b1-3)Gal(b1-4)GlcNAc(b1-3)Gal(b1-4)GlcNAc(b1-3)Gal(b1-4)GlcNAc(b1-2)Man(a1-6)]Man(b1-4)GlcNAc(b1-4)GlcNAc
Outline: as §1

[15] = molecular target: Gal(b1-4)GlcNAc(b1-3)Gal(b1-4)GlcNAc(b1-3)GalNAc
Outline: as §1

[16] = molecular target: Gal(b1-4)GlcNAc(b1-3)Gal(b1-4)GlcNAc(b1-3)[Gal(b1-4)GlcNAc(b1-3)Gal(b1-4)GlcNAc(b1-6)]GalNAc
Outline: as §1

[17] = molecular target: Gal(b1-4)GlcNAc(b1-3)Gal(b1-4)GlcNAc(b1-6)[Gal(b1-3)]GalNAc
Outline: as §1

[18] = molecular target: Gal(b1-4)GlcNAc(b1-3)Gal(b1-4)[Fuc(a1-3)]GlcNAc(b1-3)Gal(b1-4)[Fuc(a1-3)]GlcNAc
Outline: as §1

[19] = molecular target: Gal(b1-4)GlcNAc(b1-3)GalNAc
Outline: as §1

[20] = molecular target: Gal(b1-4)GlcNAc(b1-3)[Fuc(a1-3)GlcNAc(b1-6)]Gal(b1-4)Glc
Outline: as §1

[21] = molecular target: Gal(b1-4)GlcNAc(b1-3)[Gal(b1-4)GlcNAc(b1-6)]Gal(b1-4)GlcNAc
Outline: as §1

[22] = molecular target: Gal(b1-4)GlcNAc(b1-3)[GlcNAc(b1-6)]Gal(b1-4)GlcNAc
Outline: as §1

[23] = molecular target: Gal(b1-4)GlcNAc(b1-6)Gal(b1-4)GlcNAc
Outline: as §1

[24] = molecular target: Gal(b1-4)GlcNAc(b1-6)GalNAc
Outline: as §1

[25] = molecular target: Gal(b1-4)GlcNAc(b1-6)[Gal(b1-3)]GalNAc
Outline: as §1

[26] = molecular target: Gal(b1-4)GlcNAc(b1-6)[Gal(b1-4)GlcNAc(b1-3)]GalNAc
Outline: as §1

Gal(b1-4)GlcNAc6P = molecular target: Gal(b1-4)GlcNAc6P
Outline: as §1

Gal(b1-6)Gal = molecular target: Gal(b1-6)Gal
Outline: as §1

Gal3S(b1-3)GalNAc = molecular target: Gal3S(b1-3)GalNAc
Outline: as §1

Gal3S(b1-3)GlcNAc = molecular target: Gal3S(b1-3)GlcNAc
Outline: as §1

[27] = molecular target: Gal3S(b1-3)[Fuc(a1-4)]GlcNAc
Outline: as §1

Gal3S(b1-4)Glc = molecular target: Gal3S(b1-4)Glc
Outline: as §1

Gal3S(b1-4)Glc6S = molecular target: Gal3S(b1-4)Glc6S
Outline: as §1

Gal3S(b1-4)GlcNAc = molecular target: Gal3S(b1-4)GlcNAc
Outline: as §1

[28] = molecular target: Gal3S(b1-4)[Fuc(a1-3)]Glc6S
Outline: as §1

[29] = molecular target: Gal3S(b1-4)[Fuc(a1-3)]GlcNAc
Outline: as §1

[30] = molecular target: Gal3S(b1-4)[Fuc(a1-3)]GlcNAc6S
Outline: as §1

B1: Apa (Mycobacterium tuberculosis), Rv1860 (protein)
chain: MHQVDPNLTRRKGRLAALAIAAMASASLVTVAVPATANADPEPAPPVPTTAASPPSTAAAPPAPATPVAPPPPAAANTPNAQPGDPNAAPPPADPNAPPPPVIAPNAPQPVRIDNPVGGFSFALPAGWVESDAAHFDYGSALLSKTTGDPPFPGQPPPVANDTRIVLGRLDQKLYASAEATDSKAAARLGSDMGEFYMPYPGTRINQETVSLDANGVSGSASYYEVKFSDPSKPNGQIWTGVIGSPAANAPDAGPPQRWFVVWLGTANNPVDKGAAKALAESIRPLVAPPPAPAPAPAEPAPAPAPAGEVAPTPTTPTPQRTLPA
[1]
  glycan array binding signal (z-score): -0.067
[2]
  glycan array binding signal (z-score): 0.171
[3]
  glycan array binding signal (z-score): -0.006
[4]
  glycan array binding signal (z-score): 0.2
[5]
  glycan array binding signal (z-score): 0.202
[6]
  glycan array binding signal (z-score): 0.421
[7]
  glycan array binding signal (z-score): -0.207
[8]
  glycan array binding signal (z-score): -0.436
[9]
  glycan array binding signal (z-score): 0.133
[10]
  glycan array binding signal (z-score): -0.157
[11]
  glycan array binding signal (z-score): -0.179
[12]
  glycan array binding signal (z-score): -0.184
[13]
  glycan array binding signal (z-score): -0.271
[14]
  glycan array binding signal (z-score): -0.256
[15]
  glycan array binding signal (z-score): 0.324
[16]
  glycan array binding signal (z-score): 0.481
[17]
  glycan array binding signal (z-score): -0.031
[18]
  glycan array binding signal (z-score): -0.425
[19]
  glycan array binding signal (z-score): -0.132
[20]
  glycan array binding signal (z-score): -0.139
[21]
  glycan array binding signal (z-score): -0.022
[22]
  glycan array binding signal (z-score): -0.402
[23]
  glycan array binding signal (z-score): -0.201
[24]
  glycan array binding signal (z-score): -0.355
[25]
  glycan array binding signal (z-score): -0.472
[26]
  glycan array binding signal (z-score): -0.158
Gal(b1-4)GlcNAc6P
  glycan array binding signal (z-score): -0.455
Gal(b1-6)Gal
  glycan array binding signal (z-score): 0.532
Gal3S(b1-3)GalNAc
  glycan array binding signal (z-score): 0.357
Gal3S(b1-3)GlcNAc
  glycan array binding signal (z-score): 0.151
[27]
  glycan array binding signal (z-score): -0.012
Gal3S(b1-4)Glc
  glycan array binding signal (z-score): -0.068
Gal3S(b1-4)Glc6S
  glycan array binding signal (z-score): 0.25
Gal3S(b1-4)GlcNAc
  glycan array binding signal (z-score): -0.061
[28]
  glycan array binding signal (z-score): 0.519
[29]
  glycan array binding signal (z-score): -0.205
[30]
  glycan array binding signal (z-score): 0.275
